Laboratory results taken from PubChem BioAssay AID652104 (National Center for Advancing Translational Sciences (NCATS), 2013).
Out of some 410,000 compounds screened, about 7,200 (1.8%) were called active. This list was built around the results that the source calls inconclusive (neither active nor inactive); the mix of calls is not that of the screen. Calls follow the shape of the dose curve; as a rule, active = well fitted activation curve with a large enough effect; inconclusive = small, poorly fitted or top-dose-only effect, or another doubt; inactive = no such curve, though single readings can be large or run the other way. Potencies of inconclusive entries are left out as doubtful fits.

experiment: qHTS of TDP-43 Inhibitors; details: TDP-43 expressing yeast growth rescue, BacTiter-Glo, 24 h; growth rescue (activation): at 46.1 µM (top of the series) unless noted; also: nearly all actives have a fitted effect of over 50% in size; as to growth rescue (activation): % of control where 0% means no effect
Method in brief: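 Growth rescue of TDP-43-toxic yeast measured as ATP luminescence (BacTiter-Glo). Cells grown to mid-log in raffinose, induced in galactose at OD600=0.02, exposed to compound 24 hr at 30 deg C.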
Potency is read from the fitted curve at half-maximal effect; tags tell the direction and shape of the fitted curve.

Structure (SMILES)	Potency	growth rescue (activation)
Cc1ccccc1OCC(=O)N1CCCc2ccccc21	inconclusive [activator, single point]	
Cc1cc(NC(=O)COC(=O)c2cc([N+](=O)[O-])ccc2N2CCOCC2)ccc1Br	inconclusive [activator, single point]	
O=C(NCCCc1ccccc1)C1CCN(C(=O)N2CCOc3ccc(Cl)cc32)CC1	inconclusive [activator, full curve, poor fit]	
COCCn1c(=N)c(C(=O)NC(C)c2ccccc2)cc2c(=O)n3cc(C)ccc3nc21 (centres undefined)		inactive: 3.24%
Fc1cccc(-c2cc3nc(-c4ccccc4)cc(N4CCC5(CC4)OCCO5)n3n2)c1	inconclusive [activator, single point]	
COc1ccc(CCNC(=O)C(=O)NCC(c2ccco2)S(=O)(=O)c2ccc(F)cc2)cc1 (centres undefined)		inactive: 14%
O=C(Cc1cccc(NC(=O)C2CCCN(C(=O)c3ccccc3)C2)c1)Nc1cccc(C(=O)N2CCCCC2)c1 (centres undefined)	inconclusive [activator, partial curve]	
CCc1cccc(NC(=O)C(c2ccccc2)N2Cc3ccccc3C2=O)c1 (centres undefined)	inconclusive [activator, single point]	
CC(=O)N1/C(=C/c2ccc(N(C)C)cc2)C(=O)c2ccccc21	inconclusive [activator, single point]	
O=C1c2ccccc2C(Nc2cccc(C(F)(F)F)c2)N1Cc1ccco1 (centres undefined)	inconclusive [activator, single point]	
CCc1nc(NCc2ccc3c(c2)OCO3)c2oc3ccccc3c2n1	active: 11.2 µM	
CC(C)n1nnnc1C1c2ccccc2C(=O)N1Cc1cccc(F)c1 (centres undefined)	inconclusive [activator, partial curve]	
CCc1ccc(-c2nc(CS(=O)CC(=O)NCCc3ccc(Cl)cc3)c(C)o2)cc1 (centres undefined)		inactive: 18.7%
O=C1CCSC2(C(=O)N(Cc3ccc(F)cc3)c3ccccc32)N1c1ccc(F)c(F)c1 (centres undefined)	inconclusive [activator, single point]	
Cc1ccc(Cc2c(-c3cccc(Br)c3)nc3ccc(Cl)cn23)cc1	inconclusive [activator, single point]	
CS(=O)(=O)N1CCC(N2CCN(Cc3ccccc3)C(=O)C2=O)CC1		inactive: 5.24%
COc1ccc(-c2cc(C(=O)NCCN3CCOCC3)c3ccccc3n2)cc1OC		inactive: 6.95%
CC(=O)N1CCN(C(=O)c2ccc(NS(=O)(=O)c3ccc4c(c3)OCCO4)cc2)CC1	inconclusive [activator, single point]	
CCCCC[C@H](O)/C=C/C1=C(CCCCCCC(=O)O)C(=O)CC1	inconclusive [activator, partial curve]	
COc1ccc(C)cc1NC(=O)Cn1c(=O)ccc2cc(S(=O)(=O)N3CCC(C)CC3)ccc21		inactive: -9.03%
COc1cccc(-n2c(C)c3c(OC)cccc(=O)c3c2C)c1	inconclusive [activator, single point]	
Cc1ccc(C=Nc2cccnc2N)cc1		inactive: 4.54%

Structure (SMILES)	Potency	growth rescue (activation)
CCOC(=O)C(C(=O)OCC)C(Nc1ccc(Br)cc1)c1ccccc1 (centres undefined)	inconclusive [activator, single point]	
Nc1c(C(=O)NC2CC2)c2nc3ccccc3nc2n1-c1ccc2c(c1)OCO2		inactive: 13.2%
COc1ccccc1OCc1cc(-c2ccccc2)no1	inconclusive [activator, single point]	
O=C(Nc1ccc(Nc2ccccc2)cc1)Nc1ccccc1Cl	inconclusive [activator, single point]	
CC(=O)c1ccc(N(CC(=O)NC2CCS(=O)(=O)C2)S(=O)(=O)c2ccc(C)cc2)cc1 (centres undefined)	inconclusive [activator, partial curve]	
CC1CCCN(C(=O)c2sc3cc([N+](=O)[O-])ccc3c2Cl)C1 (centres undefined)	inconclusive [activator, single point]	
CCOC(=O)c1nnc(-c2ccccc2)nc1NC	inconclusive [activator, single point]	
CCCc1c(-c2ccc(O)cc2)nn(-c2ccc(O)cc2)c1-c1ccc(O)cc1	inconclusive [activator, partial curve]	
Cc1c(NC(=O)C(C)(C)Oc2ccc(Cl)cc2)cccc1-c1nc2ncccc2o1	inconclusive [activator, single point]	
COc1ccccc1OCC(=O)Nc1ccccc1C(=O)NCc1ccco1		inactive: 2.86%
N#Cc1ccc(C2=CC(=O)C[C@H](c3ccc4c(c3)OCO4)C2)cc1	active: 17.8 µM	
CC1CCCC(NS(=O)(=O)c2cc3c(cc2Cl)NC(=O)CO3)C1C (centres undefined)	inconclusive [activator, partial curve]	
CCC(C(=O)Nc1cc(F)ccc1F)n1nc(-c2cc(C)ccc2C)ccc1=O (centres undefined)	active: 22.4 µM	
CCOC(=O)N1CCc2c(sc3c2c(=O)n(Cc2ccccc2)c(=O)n3CC(=O)Nc2ccc(C)c(C)c2)C1		inactive: 12.8%
COc1ccc(-c2sc(Nc3ccccc3)n[n+]2C)c(C)c1C	inconclusive [activator, partial curve]	
Cc1c(NC(=O)c2cccc3c(Cl)cccc23)cccc1-c1nc2ccccc2o1		inactive: 13.6%
O=C1CSC(=S)N1N=Cc1ccc(Cl)cc1Cl	inconclusive [activator, single point]	
CC(C)C1OC2c3cccc4cccc(c34)C2N1c1ccccc1 (centres undefined)	active: 12.6 µM	
CCc1ccc(C2c3c(oc4ccc(F)cc4c3=O)C(=O)N2c2nc(C)c(C(=O)OC)s2)cc1 (centres undefined)		inactive: 10.2%
CC1SC(c2ccc(Cl)cc2Cl)NC1=O (centres undefined)	inconclusive [activator, single point]	
CC(C)C(c1nnnn1C(C)(C)C)N1CCN(c2cccc(Cl)c2)CC1 (centres undefined)	inconclusive [activator, single point]	
O=C(Nc1ccc(F)cc1F)c1ccc2c(O)c(S(=O)(=O)c3ccc(Cl)cc3)c(=O)[nH]c2c1		inactive: 3.16%
